Experimental data from PubChem BioAssay AID624418 (National Center for Advancing Translational Sciences (NCATS), 2012).
The whole screen tested about 410,000 compounds, of which about 530 (0.13%) were called active. Inconclusive means that the source gave no clear call. Such entries were picked first, then a sample of the others. Calls follow the shape of the dose curve; as a rule, active = well fitted inhibition curve with a large enough effect; inconclusive = small, poorly fitted or top-dose-only effect, or another doubt; inactive = no such curve, though single readings can be large or run the other way. A potency beside an inconclusive call is a rough fit, not a confirmed value.

test: qHTS of GLP-1 Receptor Inverse Agonists: Cytotox Screen; details: HEK293 cAMP-luciferase reporter cells, luminescence, 24 h; activity change, negative = inhibition: at 38.3 µM (top of the series) unless noted
Method in brief: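 Here, cytotoxicity is scored as loss of luminescence. The MLSMR collection was tested on cells seeded in medium containing 10% Nu serum, with a 24 hr compound exposure preceded by 12 hours of culture.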
% is scaled to controls: 0 for no effect and ±100 for the full control effect; potency is read from the fitted curve at half-maximal effect.

Structure (SMILES)	Potency	activity change, negative = inhibition
CCOC(=O)c1c(C)[nH]c(C(=O)OCc2csc(CC(=O)Nc3ccccc3C)n2)c1C	inconclusive: 28.2 µM [inhibitor, single point]	
COc1ccc(-n2cc(-c3ccccc3)[nH]c2=S)c(OC)c1	inconclusive: 22.4 µM [inhibitor, single point]	
Cc1ccc(C(C)C)c(OCC(=O)Nc2ccc3c(c2)nc(CCNC(=O)c2ccco2)n3C)c1		inactive: 1.1%
CCC(CO)Oc1cc(NC(=O)c2ccc([N+](=O)[O-])cc2)c2ncn(C(C)C)c2c1 (centres undefined)		inactive: 5.56%
COCCNC(=S)N/N=C(\C)CCc1ccc2c(c1)OCO2	inconclusive: 28.2 µM [inhibitor, single point]	
COc1ccc(/C=C2/SC(=S)N(NS(=O)(=O)c3ccccc3)C2=O)cc1	inconclusive: 28.2 µM [inhibitor, single point]	
Cc1ccc2nc(-c3ccccc3)cc(C(=O)NNC(=O)c3csc(N4CCOCC4)n3)c2c1	inconclusive: 15.8 µM [inhibitor, single point]	
CC1CCC2C(=O)N(c3cccc(C(=O)Nc4ccc(F)cc4)c3)C(=O)C2C1 (centres undefined)		inactive: 1.72%
O=C(N/N=C/C=C/c1ccco1)C(O)c1ccccc1 (centres undefined)		inactive: 4.88%
Cc1cc(N=Nc2ccc(Cl)cc2)cc(CN2CCCC2)c1O	inconclusive: 11.2 µM [inhibitor, partial curve, poor fit]	
CCCc1ccc(S(=O)(=O)NCC2CCCN2CC)cc1 (centres undefined)		inactive: -6.53%
CC(C)C[C@@H](CO)N(Cc1ccccc1)S(=O)(=O)N(Cc1ccccc1)[C@H](CO)CC(C)C	inconclusive: 28.2 µM [inhibitor, single point]	
CC(C)(C)Cc1nc2ccccc2n1CCc1ccccc1		inactive: -3.79%
CC(=O)N1CCCc2cc(S(=O)(=O)Nc3ccc(Cl)cc3F)ccc21	inconclusive: 6.31 µM [inhibitor, partial curve, poor fit]	
Cc1ccccc1C(=O)NNC(=O)c1cccc(Br)c1		inactive: -2.31%
CSc1ccccc1OC1CCN(Cc2ccccc2)CC1	inconclusive: 28.2 µM [inhibitor, partial curve, poor fit]	
N#Cc1nc(-c2ccco2)oc1N1CCCC1		inactive: -4.98%
CCCCOc1ccc(CSC(=N)N)cc1Cl	inconclusive: 28.2 µM [inhibitor, single point]	
NC(=S)NN=C1CCCCC12CCCC2	inconclusive: 12.6 µM [inhibitor, single point]	
COC(=O)c1ccc(NC(=O)CCN2CCOCC2)cc1		inactive: -8.92%
Clc1ccc2[nH]c3c(N4CCC5(CC4)OCCO5)ncnc3c2c1	inconclusive: 4.47 µM [inhibitor, partial curve, poor fit]	
CCc1cc(=O)oc2cc(C)cc(OCC(=O)NCCc3c[nH]c4ccccc34)c12	inconclusive: 7.08 µM [inhibitor, partial curve, poor fit]	
CC1(C)OC(=O)C(=NNc2ccccc2C(=O)O)C(=O)O1	inconclusive: 28.2 µM [inhibitor, single point]	

Structure (SMILES)	Potency	activity change, negative = inhibition
Cc1[nH]cnc1CSCc1ccc(Cl)cc1	inconclusive: 17.8 µM [inhibitor, single point]	
CN(C)CCCN(C(=O)c1ccc2ccccc2c1)c1nc2cc3c(cc2s1)OCO3	inconclusive: 10 µM [inhibitor, single point]	
Clc1ccc(-c2c[n+](Cc3ccc(Cl)cc3Cl)c3n2CCCCC3)cc1	inconclusive: 17.8 µM [inhibitor, single point]	
OCCCNc1nccc(-c2cc(Nc3cccc(Cl)c3)ncn2)n1	inconclusive: 5.01 µM [inhibitor, full curve]	
O=C(NC(=S)N1CCN(c2ccc(Cl)cc2[N+](=O)[O-])CC1)c1ccco1	inconclusive: 10 µM [inhibitor, partial curve]	
CN(CC(=O)Nc1ccc(Cl)c(C(F)(F)F)c1)C(=O)c1ccc(N2CCOCC2)c([N+](=O)[O-])c1	inconclusive: 12.6 µM [inhibitor, single point]	
CCOc1ccccc1CNS(=O)(=O)c1ccc(-c2cnc(C3CC3)o2)cc1	inconclusive: 2 µM [inhibitor, full curve, poor fit]	
Cc1cccc(-n2c(C)cc(/C=N/NC(N)=S)c2C)c1	inconclusive: 11.2 µM [inhibitor, partial curve, poor fit]	
FC(F)(F)c1cccc(CN2CCC(c3cc(-c4cccs4)n[nH]3)CC2)c1	inconclusive: 11.2 µM [inhibitor, partial curve, poor fit]	
CC(=O)Nc1ccc(S(=O)(=O)N2CCN(Cc3ccncc3)CC2)cc1		inactive: 10.5%
Cc1cc(Cl)ccc1OCc1nnc(-c2ccccc2C)o1		inactive: 8.1%
COc1ccc(NC(=O)N(C)[C@H]2C[C@H]3c4[nH]c5ccc(-c6ccc(OC)cc6)cc5c4CCN3C(=O)[C@H]2[C@H](C)O)cc1	inconclusive: 28.2 µM [inhibitor, single point]	
O=C(CSC1=Nc2ccccc2C2=NC(Cc3ccccc3)C(=O)N12)Nc1cccc(Cl)c1 (centres undefined)	inconclusive: 28.2 µM [inhibitor, partial curve, poor fit]	
CCOC(=O)c1c(-c2ccccc2)oc2ccc(NS(=O)(=O)c3ccc(C)cc3)cc12	inconclusive: 7.08 µM [inhibitor, partial curve]	
CCN1C(=O)c2ccccc2Sc2ccc(NC(=O)Nc3cc(C)cc(C)c3)cc21		inactive: -16.2%
O=C(Cn1ccnc1)c1ccc(O)c(O)c1	inconclusive: 28.2 µM [inhibitor, single point]	
CC(C)(C)c1ccc(NC(=S)NCc2cccs2)cc1	inconclusive: 20 µM [inhibitor, single point]	
CN1C(=O)C2(C(C#N)=C(N)Oc3c2oc(CO)cc3=O)c2ccccc21 (centres undefined)	inconclusive: 28.2 µM [inhibitor, single point]	
CCC1CCCCN1S(=O)(=O)c1ccc2c(c1)CCN2C(=O)C1CCC1 (centres undefined)		inactive: -17.2%
CCOC(=O)c1cnc(Nc2nc3ccccc3o2)nc1CSc1ncccn1	inconclusive: 3.55 µM [inhibitor, full curve, poor fit]	
Nc1ccc2c(c1)CC(=O)c1ccccc1S2		inactive: -14%
Cc1ccc(-n2ncc(C(=O)Nc3ccc(Cl)cc3)c2C2CCNCC2)cc1C	inconclusive: 15.8 µM [inhibitor, single point]	
Nc1[nH]c2cc([N+](=O)[O-])ccc2c1-c1ccccn1	inconclusive: 10 µM [inhibitor, partial curve]	

Structure (SMILES)	Potency	activity change, negative = inhibition
CCC(C)n1c(SCc2ccc(F)cc2Cl)nc2ccsc2c1=O (centres undefined)		inactive: 1.75%
CCC(=S)/C=C1\Sc2ccccc2N1CCCS(=O)(=O)O	inconclusive: 28.2 µM [inhibitor, single point]	
COc1cc2c(cc1OC)C(=O)C(Br)CC2 (centres undefined)	inconclusive: 22.4 µM [inhibitor, single point]	
CCn1cc(CN2CCCC(C(=O)Nc3cccc(-c4cc5ccccc5[nH]4)c3)C2)c(C)n1 (centres undefined)	inconclusive: 31.6 µM [inhibitor, partial curve, poor fit]	
O=C(NCCCc1ccccc1)c1cccc(Br)c1		inactive: 1.84%
COc1cccc(/C=N\NC(C)=O)c1OC/C=C/c1ccccc1	inconclusive: 28.2 µM [inhibitor, single point]	
C/C=C(/C)C(=O)O[C@@H]1c2c(ccc3ccc(=O)oc23)O[C@@H]1C(C)(C)OC(=O)/C(C)=C\C		inactive: 5.23%
O=C(CC1NCCNC1=O)Nc1ccc(F)c(Cl)c1 (centres undefined)		inactive: -10.7%
CC(C)c1ccc(-c2cc(C(=O)NN3CCN(C)CC3)c3ccccc3n2)cc1		inactive: -8.71% [at 1.53 µM]
CC1CC(C)CN(Cc2nc(N)nc(Nc3ccc4ccccc4c3)n2)C1 (centres undefined)	inconclusive: 11.2 µM [inhibitor, partial curve, poor fit]	
CC1(C)CC2CC(C)(CN2c2ncnc3ccc(Br)cc23)C1 (centres undefined)	inconclusive: 11.2 µM [inhibitor, single point]	
CCOCCCn1c(SCC(=O)Nc2ccc(F)cc2)nc2c(sc3ccccc32)c1=O		inactive: -5.81%
CCNC(=S)N1N=C2c3ccccc3CCC2C1c1ccc(F)cc1 (centres undefined)	inconclusive: 10 µM [inhibitor, partial curve]	
CC(C)(C)c1cc(C(=O)N/N=C/c2ccccc2O)n(-c2ccccc2)n1	inconclusive: 28.2 µM [inhibitor, single point]	
Cc1nn(C)c(Oc2ccccc2)c1CCNS(=O)(=O)c1ccc(F)cc1	inconclusive: 28.2 µM [inhibitor, single point]	
COc1ccc(C(=O)N/N=C/c2ccc(OC)c(OS(=O)(=O)c3ccccc3)c2)cc1	inconclusive: 28.2 µM [inhibitor, single point]	
CCOc1cccc(CC(=O)N2CCc3c([nH]c4ccccc34)C2c2ccc(C)cc2)c1OCC (centres undefined)		inactive: -2.74%
O=C(Cn1cc(S(=O)(=O)N2CCN(c3ccccc3F)CC2)c2ccccc2c1=O)Nc1cccc(C(F)(F)F)c1		inactive: -1.54%
N#Cc1ccccc1NC(=O)C1CC(=O)N(c2ccc3c4c(cccc24)CC3)C1 (centres undefined)		inactive: 15.7%
Clc1ccc(-n2ncc3c(NCc4ccco4)ncnc32)cc1	inconclusive: 12.6 µM [inhibitor, single point]	
CCn1cc(C(=O)OCC(=O)Nc2cccc(Cl)c2C)c(=O)c2ccc(C)nc21		inactive: 3.5%
C=Cc1ccc(CSc2nc(-c3ccccc3C)nc3c2Cc2c(CO)cnc(C)c2O3)cc1		inactive: -20.8%
COc1ccc(N2CC(C(=O)Nc3cc(C(F)(F)F)ccc3N3CCCC3)CC2=O)c(OC)c1 (centres undefined)	inconclusive: 7.08 µM [inhibitor, partial curve, poor fit]	
